Assay results from PubChem BioAssay AID493035 (The Scripps Research Institute Molecular Screening Center, 2011).
The campaign covered roughly 2,000 compounds. About 45 (2%) were called active.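 How the source made its calls: active means inhibition above the mean of all tested compounds plus 3 SD (cut at about 49% in these data); inactive means the rest.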 The list shows a part of the results.

Molecular target: Perilipin-5 (Homo sapiens) + 1-acylglycerol-3-phosphate O-acyltransferase ABHD5 (Homo sapiens) (UniProt Q00G26+Q8WTS1)
Chain of UniProt Q00G26 (Q00G26 whole entry, looked up): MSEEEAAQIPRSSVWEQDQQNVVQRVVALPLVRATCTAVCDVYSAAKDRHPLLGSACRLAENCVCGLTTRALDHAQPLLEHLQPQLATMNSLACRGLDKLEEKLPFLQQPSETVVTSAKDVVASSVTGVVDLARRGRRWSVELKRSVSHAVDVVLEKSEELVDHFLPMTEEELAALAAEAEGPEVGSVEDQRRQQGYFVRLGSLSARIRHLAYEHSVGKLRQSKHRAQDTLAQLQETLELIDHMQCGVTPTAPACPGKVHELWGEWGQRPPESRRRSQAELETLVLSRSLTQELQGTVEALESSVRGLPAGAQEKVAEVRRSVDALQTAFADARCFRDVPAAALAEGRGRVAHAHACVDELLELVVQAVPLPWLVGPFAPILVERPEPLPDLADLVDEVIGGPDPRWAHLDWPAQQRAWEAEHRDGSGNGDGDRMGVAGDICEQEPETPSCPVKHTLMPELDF
Chain of UniProt Q00G26 (Q8WTS1 whole entry, looked up): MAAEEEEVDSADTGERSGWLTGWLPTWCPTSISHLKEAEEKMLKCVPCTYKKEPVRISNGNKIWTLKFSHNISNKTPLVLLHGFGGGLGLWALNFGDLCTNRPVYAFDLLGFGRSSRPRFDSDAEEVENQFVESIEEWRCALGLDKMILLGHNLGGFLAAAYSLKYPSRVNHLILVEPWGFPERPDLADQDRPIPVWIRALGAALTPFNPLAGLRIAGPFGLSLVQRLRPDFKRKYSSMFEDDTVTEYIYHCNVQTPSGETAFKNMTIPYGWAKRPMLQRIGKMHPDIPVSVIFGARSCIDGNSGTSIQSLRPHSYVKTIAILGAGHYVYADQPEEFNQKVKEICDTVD
Experiment: blockers of ABHD5 binding to perilipin-5 – cell lysate, split luciferase complementation, luminescence, NIH validation set, pilot screen (AID 493035);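 further: 0% = DMSO only wells while the 100% control is not stated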
Conditions: split G. princeps luciferase complementation, lysates, 4 h; at 7.9 µM, active compounds read high

inhibition, inactive:
C[N+](C)(C)CCCCCCCCCC[N+](C)(C)C -1.24%, COc1ccc(C(=O)Oc2ccc3c(C)cc(=O)oc3c2C(C)=O)cc1 2.94%, NS(=O)(=O)c1ccc(CNC(=O)c2cc(-c3ccccc3)nc3ccccc23)cc1 8.72%, O=C(O)C1Sc2[nH]c(=O)sc2C2c3ccc(O)cc3OC(=O)C12 (stereo unspecified) 3.48%, Fc1ccc(NC(=S)Nc2ccccc2Cl)cc1 2.3%, CC(=O)OC[C@H]1O[C@@H](n2ncc(=O)[nH]c2=O)[C@H](OC(C)=O)[C@@H]1OC(C)=O 3.32%, CN1C(=O)C(O)(CC(=O)c2ccccc2O)c2cc(Br)ccc21 (stereo unspecified) 0.19%, COc1ccc(C2NC(=O)c3ccccc3N2)cc1OC (stereo unspecified) -4.79%, COc1cc2c(cc1OC)C(=S)NC(C)(C)C2 11.8%, CN(C)CCN(Cc1ccccc1)c1ccccn1 -6.09%, CC1(C)C(=O)OC(c2cccs2)C2(CCCCC2)C1=O (stereo unspecified) 0.74%, CC(NC(=O)c1ccc(N2CCNCC2)c([N+](=O)[O-])c1)C12CC3CC(CC(C3)C1)C2 (stereo unspecified) -7.51%, Cn1c(=O)oc2cc(S(=O)(=O)N3CCc4ccccc4C3)ccc21 -0.05%, CC(NC(=O)OCc1ccccc1)C(=O)N1CC(O)CC1C(=O)O (stereo unspecified) -6.28%, O=C(/C=C/c1ccco1)NCc1ccc2c(c1)OCO2 14.1%, CC1=CC(C)(C)N2C(=O)C3(NCCc4c3[nH]c3ccccc43)c3cc(C)cc1c32 (stereo unspecified) -1.07%, COc1ccc(CC(=O)N2CC3(C)CC2CC(C)(C)C3)cc1OC (stereo unspecified) -11.3%, O=c1cnn([C@@H]2O[C@H](CO)[C@@H](O)[C@H]2O)c(=O)[nH]1 -4.2%, C=CCN1C(=O)c2oc3ccccc3c(=O)c2C1c1ccc(O)c(OC)c1 (stereo unspecified) 5.16%, COc1cccc2c(=O)c3ccccc3oc12 -15.8%, CN1CCc2cccc3c2[C@@H]1Cc1ccc(O)c(O)c1-3 27.2%, CN(C)CCOC(c1ccccc1)c1ccccc1 -7.17%, O=C(NCc1ccco1)/C(=C\C=C\c1ccccc1)NC(=O)c1ccccc1Br 17.3%, COc1ccc(S(N)(=O)=O)cc1C(N)=O 0.13%, CC(=O)N1CCN(c2ccc(OC[C@H]3CO[C@](Cn4ccnc4)(c4ccc(Cl)cc4Cl)O3)cc2)CC1 16.2%, CO[C@@H]1O[C@@H]2COC(c3ccccc3)O[C@@H]2[C@@H](OC)[C@@H]1O (stereo partly specified) 0.93%
